Measured values taken from the supplement of paper PMC4723716.
± gives the uncertainty stated by the source. The full ranking holds about 9,900 compounds; the median of “viability index relative to DMSO control” is about 1, and the lowest 2% start at about 0.85. This is one part of the list.

Test system: Plasmodium falciparum NF54 stage V gametocytes
Test: viability index relative to DMSO control (fraction); higher = less gametocyte killing
Details: 2.5 µM, incubation time: 72 h
Outline: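 P. falciparum NF54 stage V gametocytes (serum-free medium, 0.75% gametocytemia, 1.25% hematocrit) were exposed to compound at 2.5 µM for 72 hr at 37°C under low oxygen, then stained with MitoTracker Red CMXRos and saponin for one to two hours. Red particles of 20–70 µm2 in one field per well were counted, and the viability index is that count scaled to the plate mean of solvent-only wells.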

[1] = library set: Broad Institute DOS

Compound | viability index [1] | viability index (library set: Broad Institute Blood Stage)
CCC(=O)N1C[C@]2(CCN(CC2)C(=O)Nc2c(C)noc2C)c2c([nH]c3cc(OC)ccc23)[C@H]1CO | 1.01 ± 0.019 | –
O=C(N[C@@H]1CC[C@@H](CC(=O)N2CCOCC2)O[C@H]1CO)c1cccc(F)c1 | 0.932 ± 0.041 | –
O=C(NCC1CCCCC1)[C@H]1[C@H](CO)[C@H]2Cn3c(cccc3=O)[C@@H]1N2C(=O)c1ccncc1 | 1.056 ± 0.0024 | –
C[C@@H]1CN([C@H](C)CO)C(=O)Cc2cc(NC(=O)C3CC3)ccc2O[C@@H]1CN(C)S(=O)(=O)c1cn(C)cn1 | 0.971 ± 0.066 | –
O=C(Cc1cccnc1)N1[C@@H](CO)[C@H](c2ccccc2)[C@@H]1CNCC1CCC1 | 0.969 ± 0.051 | –
O=C(C[C@H]1C=C[C@H](NC(=O)c2ccncc2)[C@@H](CO)O1)NCC1CC1 | 1.08 ± 0.027 | –
CN(C[C@@H]1[C@H](c2ccccc2)[C@@H](CO)N1Cc1ccccn1)S(C)(=O)=O | 1.03 ± 0.036 | –
CN(C)C(=O)C[C@H]1CC[C@@H]2[C@H](COC[C@H](O)CN2C(=O)c2ccncc2)O1 | 1.06 ± 0.032 | –
CCC(=O)N1C[C@@H](O)COC[C@@H]2O[C@H](CC(=O)NC)CC[C@H]21 | 1.12 ± 0.048 | –
COc1ccc(-c2ccc([C@H]3[C@H]4CN(Cc5ccccc5)CC(=O)N4[C@H]3CO)cc2)cc1 | 1.04 ± 0.02 | –
C[C@@H]1CN([C@H](C)CO)C(=O)c2cc(NC(=O)CCC(F)(F)F)ccc2O[C@@H](C)CCCCO[C@@H]1CN(C)C(=O)c1ccncc1 | 1.01 ± 0.023 | –
O=C(C[C@H]1C[C@@H]2c3cc(NC(=O)CC4CC4)ccc3O[C@@H]2[C@@H](CO)O1)NCC1CC1 | 1.02 ± 0.012 | –
O=C(C[C@H]1C[C@@H]2c3cc(NC(=O)C4CCOCC4)ccc3O[C@@H]2[C@@H](CO)O1)NCc1cccnc1 | 1.06 ± 0.018 | –
CN1CCN(C(=O)C[C@H]2CC[C@@H]3[C@H](COC[C@@H](O)CN3CC3CCCCC3)O2)CC1 | 1.09 ± 0.021 | –
COc1ccc(NC(=O)Nc2cccc3c2O[C@H](CN(C)Cc2ccc(C(=O)O)cc2)[C@H](C)CN([C@@H](C)CO)C3=O)cc1 | 1 ± 0.091 | –
Cc1noc(C)c1S(=O)(=O)Nc1ccc2c(c1)CC(=O)N([C@@H](C)CO)C[C@H](C)[C@H](CN(C)Cc1ccc(Oc3ccccc3)cc1)O2 | 0.923 ± 0.045 | –
CS(=O)(=O)Nc1ccc2c(c1)[C@H]1C[C@H](CC(=O)NCc3cc(F)ccc3F)O[C@H](CO)[C@H]1O2 | 1.1 ± 0.061 | –
CCCNC(=O)C[C@@H]1CC[C@@H]2[C@H](COC[C@H](O)CN2C(=O)Nc2ccc(Cl)c(Cl)c2)O1 | 1.01 ± 0.1 | –
CN(C)C(=O)C[C@H]1CC[C@H]2[C@H](COc3ccc(NC(=O)C4CCCCC4)cc3C(=O)N2C)O1 | 1.095 ± 0.0094 | –
CO[C@H](CN(C)C(=O)Nc1ccc(Cl)cc1)[C@H](C)CN(Cc1ccccc1Cl)[C@H](C)CO | 0.993 ± 0.037 | –
C[C@H](CO)N1C[C@H](C)[C@@H](CN(C)C(=O)c2ccccc2)Oc2ncc(C#Cc3ccccc3)cc2C1=O | 0.963 ± 0.029 | –
Cc1ccccc1S(=O)(=O)N1C[C@@H](O)COC[C@H]2O[C@H](CC(=O)N3CCCCC3)CC[C@@H]21 | 1.009 ± 0.0066 | –
O=C(C[C@@H]1C[C@@H]2c3cc(NS(=O)(=O)c4ccc(F)cc4)ccc3O[C@@H]2[C@@H](CO)O1)NCCN1CCCCC1 | 1.095 ± 0.0079 | –
CC(=O)N1CC2(C1)[C@H](c1ccccc1)[C@H](CO)N2C(=O)Cc1ccccc1 | 1.04 ± 0.024 | –

Compound | viability index [1] | viability index (library set: Broad Institute Blood Stage)
CO[C@@H]1CC[C@H]2CCOc3c(C#N)cccc3C(=O)N(C)C[C@@H](c3ccccc3)CC(=O)N(C)C[C@H]1O2 | 1.08 ± 0.16 | –
COc1ccc(C#Cc2ccc([C@@H]3[C@H](CO)N4C(=O)CN(C(=O)NC(C)C)C[C@@H]34)cc2)cc1 | 0.927 ± 0.076 | –
C[C@@H]1CN([C@@H](C)CO)C(=O)c2c(c3ccccc3n2C)-c2ccccc2CO[C@@H]1CN(C)C(=O)[C@@H](Cc1ccccc1)N(C)C | 0.965 ± 0.12 | –
COc1ccc(NC(=O)N2C[C@@]3(C2)CN([C@H](CO)c2c3c3ccc(OC)cc3n2C)C(=O)C2CCC2)cc1 | – | 0.841 ± 0.05
C/C=C/c1ccc([C@@H]2[C@@H](C#N)N(C(=O)NC3CCCCC3)[C@@H]2CO)cc1 | 1.06 ± 0.062 | –
COc1ccc(S(=O)(=O)Nc2ccc3c(c2)CC(=O)N([C@@H](C)CO)C[C@H](C)[C@H](CN(C)C(=O)Nc2c(C)noc2C)O3)cc1 | 0.972 ± 0.019 | –
COC(=O)C[C@H]1CC[C@H]2[C@@H](COC[C@@H](O)CN2S(=O)(=O)c2ccccc2OC)O1 | 1.06 ± 0.036 | –
CN1C(=O)c2cc(NS(C)(=O)=O)ccc2OC[C@H]2O[C@@H](CC(=O)N3CCOCC3)CC[C@@H]21 | 1.05 ± 0.016 | –
C[C@@H]1CN([C@H](C)CO)C(=O)c2cc(NC(=O)CCCCCC(=O)Nc3ccccc3N)ccc2O[C@@H](C)CCCCO[C@H]1CN(C)Cc1ccc(Cl)c(Cl)c1 | 0.902 ± 0.064 | –
CC(=O)N1[C@@H](CO)[C@H](c2ccccc2)[C@@H]1CN(CC(C)C)C(=O)c1ccccn1 | 1.05 ± 0.061 | –
CN1C(=O)c2cc(NC(=O)c3cscn3)ccc2OC[C@@H]2O[C@H](CC(=O)NCc3ccc(Cl)c(Cl)c3)CC[C@H]21 | 0.978 ± 0.14 | –
CC(C)(C)[S@@](=O)N1Cc2cc(C(=O)N3CCc4ccccc4C3)nc(-c3cccc(-c4cncnc4)c3)c2[C@H]1CCO | 1.02 ± 0.053 | –
O=C(c1ccccn1)N1C[C@@H]2[C@H](c3ccccc31)[C@@H](CO)N2C(=O)Nc1ccccc1Cl | 0.985 ± 0.012 | –
O=C(CCN1CCCCC1)NCC[C@@H]1CC[C@H](NS(=O)(=O)c2cccc(Cl)c2)[C@@H](CO)O1 | 0.972 ± 0.075 | –
C[C@@H](NC(=O)C[C@@H]1C=C[C@H](NC(=O)c2cccnc2)[C@@H](CO)O1)c1ccccc1 | 1.09 ± 0.053 | –
Cc1cccc(S(=O)(=O)N[C@@H]2CC[C@H](CCNC(=O)Nc3cc(F)ccc3F)O[C@H]2CO)c1 | 1.06 ± 0.15 | –
O=S(=O)(c1cccc(F)c1)N1CC[C@@H]2[C@H](CO)Nc3ccc(C#Cc4ccccc4F)cc3[C@@H]21 | 1.017 ± 0.0066 | –
CN1CCN(C(=O)C[C@H]2CC[C@@H]3[C@H](COC[C@@H](O)CN3Cc3cccc(-c4ccncc4)c3)O2)CC1 | 1.07 ± 0.024 | –
C[C@@H]1CN([C@@H](C)CO)C(=O)c2cc(NS(=O)(=O)c3ccc(Cl)cc3)ccc2O[C@@H](C)CCCCO[C@H]1CN(C)C(=O)CCCN(C)C | 1.03 ± 0.02 | –
Cc1noc(C)c1NC(=O)N(C)C[C@H]1OCc2cn(nn2)CCCC(=O)N([C@H](C)CO)C[C@@H]1C | 1.07 ± 0.041 | –
COc1ccc2c3c([C@H](CO)N(C[C@]33CN(C3)C(=O)Cc3ccccc3)C(=O)c3ccccn3)n(C)c2c1 | 1.03 ± 0.053 | –
COc1ccc2c3c([nH]c2c1)[C@H](CO)N(C[C@]31CCN(Cc2cccc(F)c2)CC1)C(=O)C1CCOCC1 | 1.043 ± 0.0076 | –
COc1ccccc1CNC(=O)C[C@@H]1C=C[C@@H](NC(=O)CC2CC2)[C@H](CO)O1 | 1.05 ± 0.034 | –
O=C([C@@H]1[C@@H](CO)[C@@H]2Cn3c(cccc3=O)[C@@H]2N1Cc1cocn1)N1CCC(Cc2ccccc2)CC1 | 1.07 ± 0.055 | –

Compound | viability index [1] | viability index (library set: Broad Institute Blood Stage)
O=C(c1ccccc1F)N1CC(=O)N2[C@H](CO)[C@H](c3ccc(C#Cc4ccccc4)cc3)[C@H]2C1 | 1.06 ± 0.17 | –
COc1ccc(S(=O)(=O)Nc2ccc3c(c2)CC(=O)N([C@@H](C)CO)C[C@@H](C)[C@H](CN(C)C(=O)Nc2c(C)noc2C)O3)cc1 | 0.986 ± 0.019 | –
C[C@H](CO)N1C[C@H](C)[C@@H](CN(C)S(C)(=O)=O)Oc2c(NC(=O)Nc3ccc4c(c3)OCO4)cccc2C1=O | 0.988 ± 0.074 | –
O=C1CN(S(=O)(=O)Cc2ccccc2)C[C@H]2[C@@H](c3ccc(C#Cc4ccccc4)cc3)[C@@H](CO)N12 | 1.08 ± 0.02 | –
CCCC#Cc1ccc([C@H]2[C@@H](CO)N3C(=O)CN(C(=O)c4cccnc4)C[C@H]23)cc1 | 1.06 ± 0.058 | –
C[C@@H]1CN([C@H](C)CO)C(=O)c2cc(/C=C/c3ccccc3)cnc2O[C@@H]1CN(C)S(=O)(=O)c1ccccc1F | 1.08 ± 0.021 | –
CO[C@@H]1CC[C@@H]2CCN(C)C(=O)CC3(CCCCC3)CN(C)C(=O)c3cccc(C#N)c3OC[C@@H]1O2 | 1.066 ± 0.009 | –
O=C(Cc1ccncc1)N1C[C@@H]2N[C@H](C1)[C@@H]2c1ccc(/C=C/c2ccccc2)cc1 | 0.9847 ± 0.0017 | –
COCC(=O)N1[C@H](CO)[C@H]2c3ccccc3N(C(=O)c3cccnc3)C[C@H]21 | 1.09 ± 0.057 | –
C[C@H](CO)N1C[C@H](C)[C@@H](CN(C)Cc2ccc(C(=O)O)cc2)OCCCC[C@H](C)Oc2ccc(N(C)C)cc2C1=O | 1.09 ± 0.13 | –
COCC(=O)Nc1ccc2c(c1)[C@@H]1C[C@@H](CC(=O)NCc3ccc4c(c3)OCO4)O[C@H](CO)[C@@H]1O2 | 1.16 ± 0.052 | –
C[C@@H]1CN([C@H](C)CO)S(=O)(=O)c2ccc(C#CCC3CCCC3)cc2O[C@H]1CN(C)C(=O)c1cnccn1 | 1 ± 0.06 | –
C[C@H](CO)N1C[C@H](C)[C@@H](CN(C)C(=O)Nc2ccc3c(c2)OCO3)Oc2ccc(NC(=O)Cn3cnnn3)cc2C1=O | 1.06 ± 0.021 | –
Cc1noc(C)c1NC(=O)N1C[C@@H](O)COC[C@H]2O[C@H](CC(=O)NCC3CC3)CC[C@@H]21 | 1.1 ± 0.048 | –
COC(=O)C[C@@H]1CC[C@H]2[C@@H](COc3ccc(NC(=O)Nc4cccc(C#N)c4)cc3C(=O)N2C)O1 | 1.14 ± 0.037 | –
COc1ccc(C#Cc2ccc([C@@H]3[C@@H](CO)N4CCCCN(C)C[C@@H]34)cc2)cc1 | 0.945 ± 0.077 | –
C[C@H](CO)N1C[C@H](C)[C@H](CN(C)C(=O)CCC(F)(F)F)OCc2cn(nn2)CCCC1=O | 1.04 ± 0.062 | –
CS(=O)(=O)Nc1ccc2c(c1)[C@@H]1C[C@@H](CC(=O)NCCc3ccccc3)O[C@@H](CO)[C@@H]1O2 | 1.14 ± 0.061 | –
C/C=C/c1ccc([C@H]2[C@@H](CO)N3C(=O)CN(C(=O)Nc4cccc(OC)c4)C[C@@H]23)cc1 | 1.05 ± 0.071 | –
COc1ccc(C#Cc2ccc([C@H]3[C@@H](CO)N4CCCCN(C)C[C@H]34)cc2)cc1 | 0.917 ± 0.074 | –
O=C(C[C@@H]1CC[C@H]2NC[C@H](O)COC[C@@H]2O1)N1CCc2ccccc2C1 | 0.9465 ± 0.005 | –
O=C(Nc1ccc(F)cc1)N1CC(=O)N2[C@H](CO)[C@@H](c3ccc(C#Cc4cccnc4)cc3)[C@H]2C1 | 0.993 ± 0.082 | –
